Source: the supplement of paper PMC12217912
The list shows a part of the results. The full chains were built here from the parent and the listed change. Inactive controls read about 0.05.

B1: TEV protease; numbered along this chain (parent)
chain: MGESLFKGPRDYNPISSSICHLTNESDGHTTSLYGIGFGPFIITNKHLFRRNNGTLVVQSLHGVFKVKDTTTLQQHLVDGRDMIIIRMPKDFPPFPQKLKFREPQREERICLVTTNFQTKSMSSMVSDTSCTFPSGDGIFWKHWIQTKDGQCGSPLVSTRDGFIVGIHSASNFTNTNNYFTSVPKNFMELLTNQEAQQWVSGWRLNADSVLWGGHKVFMVKPEEPFQPVKEATQL

Variants of: B1
Test: raw area under fraction-flipped curve 0-4 h after induction (AUC4h, not background-subtracted), DNA-recorder readout of cleavage of the substrate (dimensionless); higher = more cleavage of the substrate by the protease variant
Conditions: temperature: 34 °C; time window: 0-4 h after rhamnose induction
Procedure: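 In vivo DNA recorder in E. coli TOP10(DE3) ΔrhaA at 34 °C. Each TEVp single-site mutant (parent TEVp 0) is paired with a single-site variant of the 7-mer TEVs (canonical ENLYFQ|S). The substrate sits between flexible linkers in a Bxb1-sfGFP-TEVs-SsrA fusion, so cleavage stabilises Bxb1 and speeds flipping of a recombination array, read by NGS. The value is the raw area under the fraction-flipped curve over 0-4 h after rhamnose induction (AUC4h), with ≥20 reads per time point. It is not background-subtracted; inactive controls average about 0.047.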
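Note: Bxb1 expression induced with 0.2% (w/v) L-rhamnose at OD600 near 0.5, cultures sampled hourly, flipped fraction per protease–substrate barcode pair counted by paired-end Illumina sequencing.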

I86L
area with substrate ENLYFQA: 0.129 | area with substrate ENLYFQD: 0.0941 | area with substrate ENLYFQG: 0.139 | area with substrate ENLYFQH: 0.0735 | area with substrate ENLYFQI: 0.055 | area with substrate ENLYFQR: 0.0468 | area with substrate ENLYFQS: 0.115 | area with substrate ENLYFQT: 0.0842

I86S
area with substrate ENLYFQA: 0.0504 | area with substrate ENLYFQC: 0.0591 | area with substrate ENLYFQD: 0.068 | area with substrate ENLYFQE: 0.0262 | area with substrate ENLYFQG: 0.0511 | area with substrate ENLYFQI: 0.0549 | area with substrate ENLYFQK: 0.0694 | area with substrate ENLYFQL: 0.0459 | area with substrate ENLYFQM: 0.053 | area with substrate ENLYFQN: 0.0514 | area with substrate ENLYFQP: 0.0568 | area with substrate ENLYFQR: 0.0405 | area with substrate ENLYFQS: 0.0586 | area with substrate ENLYFQT: 0.0527 | area with substrate ENLYFQV: 0.0438 | area with substrate ENLYFQW: 0.0482

I86T
area with substrate ENLYFQA: 0.0896 | area with substrate ENLYFQC: 0.0808 | area with substrate ENLYFQD: 0.054 | area with substrate ENLYFQF: 0.0724 | area with substrate ENLYFQG: 0.0701 | area with substrate ENLYFQI: 0.0462 | area with substrate ENLYFQL: 0.0473 | area with substrate ENLYFQM: 0.0612 | area with substrate ENLYFQN: 0.0639 | area with substrate ENLYFQR: 0.0604 | area with substrate ENLYFQS: 0.0751 | area with substrate ENLYFQT: 0.0531 | area with substrate ENLYFQY: 0.076

I84T
area with substrate ENLYFQA: 0.0669 | area with substrate ENLYFQD: 0.0615 | area with substrate ENLYFQI: 0.0573 | area with substrate ENLYFQN: 0.0672 | area with substrate ENLYFQR: 0.06 | area with substrate ENLYFQS: 0.0794 | area with substrate ENLYFQV: 0.0612 | area with substrate ENLYFQW: 0.0541

I84R
area with substrate ENLYFQA: 0.0528 | area with substrate ENLYFQC: 0.0523 | area with substrate ENLYFQD: 0.0612 | area with substrate ENLYFQI: 0.0498 | area with substrate ENLYFQK: 0.0555 | area with substrate ENLYFQL: 0.0602 | area with substrate ENLYFQM: 0.0559 | area with substrate ENLYFQN: 0.053 | area with substrate ENLYFQQ: 0.0284 | area with substrate ENLYFQR: 0.0536 | area with substrate ENLYFQS: 0.061 | area with substrate ENLYFQT: 0.054 | area with substrate ENLYFQW: 0.0596 | area with substrate ENLYFQY: 0.0324

D91N
area with substrate ENLYFQA: 0.113 | area with substrate ENLYFQF: 0.0886 | area with substrate ENLYFQQ: 0.0662 | area with substrate ENLYFQS: 0.0973 | area with substrate ENLYFQV: 0.0645 | area with substrate ENLYFQW: 0.0625

D91I
area with substrate ENLYFQA: 0.0863 | area with substrate ENLYFQC: 0.0044 | area with substrate ENLYFQG: 0.077 | area with substrate ENLYFQI: 0.0177 | area with substrate ENLYFQK: 0.0593 | area with substrate ENLYFQL: 0.0673 | area with substrate ENLYFQM: 0.0797 | area with substrate ENLYFQP: 0.0485 | area with substrate ENLYFQR: 0.0584 | area with substrate ENLYFQS: 0.0955 | area with substrate ENLYFQT: 0.0726 | area with substrate ENLYFQV: 0.0539 | area with substrate ENLYFQY: 0.0574

F92I
area with substrate ENLYFQA: 0.076 | area with substrate ENLYFQD: 0.0704 | area with substrate ENLYFQF: 0.0629 | area with substrate ENLYFQG: 0.107 | area with substrate ENLYFQH: 0.078 | area with substrate ENLYFQL: 0.0565 | area with substrate ENLYFQM: 0.0778 | area with substrate ENLYFQN: 0.0642 | area with substrate ENLYFQP: 0.0487 | area with substrate ENLYFQR: 0.0589 | area with substrate ENLYFQS: 0.0975 | area with substrate ENLYFQT: 0.07 | area with substrate ENLYFQV: 0.0657

P89M
area with substrate ENLYFQA: 0.0791 | area with substrate ENLYFQC: 0.0959 | area with substrate ENLYFQF: 0.0682 | area with substrate ENLYFQG: 0.0711 | area with substrate ENLYFQH: 0.059 | area with substrate ENLYFQI: 0.076 | area with substrate ENLYFQK: 0.0569 | area with substrate ENLYFQM: 0.0673 | area with substrate ENLYFQN: 0.0607 | area with substrate ENLYFQP: 0.0732 | area with substrate ENLYFQQ: 0.057 | area with substrate ENLYFQR: 0.0408 | area with substrate ENLYFQS: 0.0795 | area with substrate ENLYFQT: 0.0411 | area with substrate ENLYFQY: 0.0578

D82A
area with substrate ENLYFQA: 0.035 | area with substrate ENLYFQC: 0.0576 | area with substrate ENLYFQL: 0.0525 | area with substrate ENLYFQM: 0.067 | area with substrate ENLYFQR: 0.0436 | area with substrate ENLYFQS: 0.0598 | area with substrate ENLYFQY: 0.0487

D82P
area with substrate ENLYFQA: 0.0236 | area with substrate ENLYFQC: 0.023 | area with substrate ENLYFQE: 0.0398 | area with substrate ENLYFQI: 0.0529 | area with substrate ENLYFQL: 0.0532 | area with substrate ENLYFQM: 0.0601 | area with substrate ENLYFQP: 0.0575 | area with substrate ENLYFQR: 0.0514 | area with substrate ENLYFQS: 0.059 | area with substrate ENLYFQV: 0.0582

R81Y
area with substrate ENLYFQA: 0.0826 | area with substrate ENLYFQC: 0.0915 | area with substrate ENLYFQD: 0.0582 | area with substrate ENLYFQG: 0.0859 | area with substrate ENLYFQH: 0.0766 | area with substrate ENLYFQI: 0.0639 | area with substrate ENLYFQK: 0.057 | area with substrate ENLYFQL: 0.0618 | area with substrate ENLYFQM: 0.0866 | area with substrate ENLYFQN: 0.071 | area with substrate ENLYFQR: 0.0732 | area with substrate ENLYFQS: 0.0806 | area with substrate ENLYFQT: 0.056 | area with substrate ENLYFQV: 0.0599 | area with substrate ENLYFQW: 0.0616 | area with substrate ENLYFQY: 0.0622

R87C
area with substrate ENLYFQA: 0.103 | area with substrate ENLYFQG: 0.108 | area with substrate ENLYFQH: 0.119 | area with substrate ENLYFQK: 0.0658 | area with substrate ENLYFQL: 0.0638 | area with substrate ENLYFQM: 0.0769 | area with substrate ENLYFQP: 0.0417 | area with substrate ENLYFQS: 0.0996 | area with substrate ENLYFQT: 0.0578 | area with substrate ENLYFQV: 0.046 | area with substrate ENLYFQY: 0.0706

R87F
area with substrate ENLYFQA: 0.0824 | area with substrate ENLYFQC: 0.0977 | area with substrate ENLYFQD: 0.0881 | area with substrate ENLYFQF: 0.0357 | area with substrate ENLYFQG: 0.0789 | area with substrate ENLYFQH: 0.0639 | area with substrate ENLYFQI: 0.0583 | area with substrate ENLYFQK: 0.0623 | area with substrate ENLYFQL: 0.0642 | area with substrate ENLYFQM: 0.0752 | area with substrate ENLYFQN: 0.0657 | area with substrate ENLYFQQ: 0.077 | area with substrate ENLYFQR: 0.0452 | area with substrate ENLYFQS: 0.0839 | area with substrate ENLYFQT: 0.0783 | area with substrate ENLYFQV: 0.0556 | area with substrate ENLYFQW: 0.0558 | area with substrate ENLYFQY: 0.0642
